Measured values reported in PubChem BioAssay (NCATS).
The shares of active, inactive and inconclusive entries below differ from those in the screen. No potency is given beside an inconclusive call; the fits are too rough. Activity calls are given as the source filed them. The call rests on the fitted dose curve; in most records, active means well fitted inhibition curve with a large enough effect; inconclusive means small, poorly fitted or top-dose-only effect, or another doubt; inactive means no such curve, though single readings can be large or run the other way.

The compounds below were run against DNA polymerase eta (Homo sapiens) (UniProt Q9Y253) (assay: qHTS for Inhibitors of Polymerase Eta: Confirmatory Assay for Cherry-picked Compounds (AID 720502)). Conditions: Pol eta primer extension, TAMRA/BHQ fluorescence, 10 min.
Sequence of UniProt Q9Y253 (Q9Y253 whole entry, looked up): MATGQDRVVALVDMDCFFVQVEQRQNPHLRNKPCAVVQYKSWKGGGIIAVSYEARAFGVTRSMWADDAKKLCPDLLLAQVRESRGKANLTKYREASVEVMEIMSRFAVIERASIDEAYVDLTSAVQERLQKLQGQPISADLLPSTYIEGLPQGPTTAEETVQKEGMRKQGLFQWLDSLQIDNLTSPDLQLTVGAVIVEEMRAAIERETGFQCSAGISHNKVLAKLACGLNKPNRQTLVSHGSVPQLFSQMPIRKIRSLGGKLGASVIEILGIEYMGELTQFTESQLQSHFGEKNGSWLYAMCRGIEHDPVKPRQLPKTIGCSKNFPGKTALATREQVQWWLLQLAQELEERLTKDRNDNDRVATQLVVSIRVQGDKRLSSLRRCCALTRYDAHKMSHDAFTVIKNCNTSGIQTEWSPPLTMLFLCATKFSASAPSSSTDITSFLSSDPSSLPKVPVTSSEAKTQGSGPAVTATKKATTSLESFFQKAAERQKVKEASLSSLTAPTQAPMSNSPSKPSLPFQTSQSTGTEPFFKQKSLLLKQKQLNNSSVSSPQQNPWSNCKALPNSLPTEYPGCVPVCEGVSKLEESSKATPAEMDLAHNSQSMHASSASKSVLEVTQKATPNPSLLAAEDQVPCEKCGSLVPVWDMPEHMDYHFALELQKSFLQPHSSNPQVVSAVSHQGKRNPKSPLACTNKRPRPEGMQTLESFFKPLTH
How it was run: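 Enzyme at 10 nM is mixed with pin-transferred compound and left 15 min at room temperature. Substrate (50 nM final) is then added, and plates are read at 0 min and after 10 min.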
Potency means the concentration at half of the fitted maximal effect; tags describe the fitted curve by direction and shape.

Compound | Potency
C=CCN1C(=O)/C(=C/c2ccc(Br)s2)C(=O)NC1=S | inconclusive [inhibitor, single point]
Cc1ccccc1N1C(=O)NC(=O)/C(=C\c2cnn(-c3ccccc3)c2)C1=O | inconclusive [inhibitor, single point]
O=c1oc2ccccc2c(O)c1[C@H]1c2ccc(O)cc2Oc2c1c(=O)oc1ccccc21 | inconclusive [inhibitor, single point]
O=C(O)c1ccccc1-c1ccc(C=C2C(=O)N(c3ccccc3)C(=S)N(c3ccccc3)C2=O)o1 | active: 33.8 µM
